Measurements taken from paper PMC6332033, “Synthesis, Crystal Structure, Absolute Configuration and Antitumor Activity of the Enantiomers of 5-Bromo-2-chloro-N-(1-phenylethyl)pyridine-3-sulfonamide” (Molecules, 2015).

How the values were obtained:
[1] = tested on: PI4K IIIα; parameters: method as in PMID 23944386; conditions: cited from earlier work; for pIC50 PI4K IIIα: pIC50 = −log IC50
[2] = tested on: PI3Kα; conditions: cited from earlier work
[3] = molecular target: PI3Kα kinase (Homo sapiens, UniProt P42336); experiment: PI3Kα kinase assay (HTRF); type: biochemical
Chain of UniProt P42336 (P42336 whole entry): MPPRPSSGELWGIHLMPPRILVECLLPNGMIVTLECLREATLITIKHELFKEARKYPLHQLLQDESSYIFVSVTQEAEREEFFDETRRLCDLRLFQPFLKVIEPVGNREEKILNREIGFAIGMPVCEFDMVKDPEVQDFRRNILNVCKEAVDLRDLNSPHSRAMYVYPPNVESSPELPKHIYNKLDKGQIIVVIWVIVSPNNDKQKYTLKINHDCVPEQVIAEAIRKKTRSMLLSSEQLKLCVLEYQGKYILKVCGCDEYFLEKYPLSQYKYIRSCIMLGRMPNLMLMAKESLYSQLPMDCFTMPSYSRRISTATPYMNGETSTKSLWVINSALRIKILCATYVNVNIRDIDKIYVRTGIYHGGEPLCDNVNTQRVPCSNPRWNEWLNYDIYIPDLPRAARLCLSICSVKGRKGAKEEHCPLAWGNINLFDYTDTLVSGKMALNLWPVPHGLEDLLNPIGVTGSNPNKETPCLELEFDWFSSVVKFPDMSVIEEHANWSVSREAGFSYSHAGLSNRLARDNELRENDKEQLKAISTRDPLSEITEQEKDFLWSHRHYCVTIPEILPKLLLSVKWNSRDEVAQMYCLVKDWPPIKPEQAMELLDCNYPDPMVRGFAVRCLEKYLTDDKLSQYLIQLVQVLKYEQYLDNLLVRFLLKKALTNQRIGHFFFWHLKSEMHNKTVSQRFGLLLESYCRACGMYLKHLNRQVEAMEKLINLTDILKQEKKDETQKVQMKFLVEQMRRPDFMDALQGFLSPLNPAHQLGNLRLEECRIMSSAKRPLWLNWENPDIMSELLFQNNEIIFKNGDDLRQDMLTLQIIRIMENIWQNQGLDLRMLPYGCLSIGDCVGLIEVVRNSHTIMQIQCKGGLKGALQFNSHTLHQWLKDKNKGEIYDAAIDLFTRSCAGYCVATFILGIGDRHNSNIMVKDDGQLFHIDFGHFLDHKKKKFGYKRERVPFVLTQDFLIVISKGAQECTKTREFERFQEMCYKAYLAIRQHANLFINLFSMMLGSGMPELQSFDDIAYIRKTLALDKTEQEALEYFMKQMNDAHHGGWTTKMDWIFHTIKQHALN
Chain of UniProt P42336 (P27986 whole entry partner): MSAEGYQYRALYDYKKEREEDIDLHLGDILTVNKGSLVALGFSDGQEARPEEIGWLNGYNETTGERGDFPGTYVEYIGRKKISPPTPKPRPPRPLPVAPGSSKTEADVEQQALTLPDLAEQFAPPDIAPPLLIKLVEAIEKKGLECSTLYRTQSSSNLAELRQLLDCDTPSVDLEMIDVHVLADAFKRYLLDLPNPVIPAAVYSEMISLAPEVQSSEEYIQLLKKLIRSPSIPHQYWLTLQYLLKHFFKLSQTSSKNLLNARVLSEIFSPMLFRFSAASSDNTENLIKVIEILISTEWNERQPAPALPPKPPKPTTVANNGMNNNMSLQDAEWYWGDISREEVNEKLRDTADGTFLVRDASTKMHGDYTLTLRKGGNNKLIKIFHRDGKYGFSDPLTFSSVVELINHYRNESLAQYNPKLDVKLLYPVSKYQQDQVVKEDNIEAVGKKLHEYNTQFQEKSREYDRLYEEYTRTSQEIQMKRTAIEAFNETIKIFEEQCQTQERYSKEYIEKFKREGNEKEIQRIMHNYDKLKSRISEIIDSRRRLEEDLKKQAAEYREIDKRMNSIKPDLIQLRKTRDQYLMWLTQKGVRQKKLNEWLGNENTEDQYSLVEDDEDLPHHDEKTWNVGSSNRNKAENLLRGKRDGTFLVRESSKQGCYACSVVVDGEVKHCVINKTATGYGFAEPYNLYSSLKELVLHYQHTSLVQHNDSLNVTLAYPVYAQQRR
Procedure: The PI3Kα kinase activities were evaluated using homogeneous time-resolved fluorescence (HTRF) assays as previously reported protocol. Briefly, 20 μg/mL poly (Glu, Tyr) 4:1 (Sigma-Aldrich, St. Louis, MO, USA) was preloaded as a substrate in 384-well plates. Then 50 μL of 10 mM ATP (Invitrogen, Waltham, MA, USA) solution diluted in kinase reaction buffer (50 mM HEPES, pH 7.0, 1 mM DTT, 1 mM MgCl2, 1 mM MnCl2, and 0.1% NaN3) was added to each well. Various concentrations of compounds were diluted in 10 μL of 1% DMSO (v/v), with blank DMSO solution as the negative control. The kinase reaction was initiated by the addition of purified tyrosine kinase proteins diluted in 39 μL of kinase reaction buffer solution. The incubation time for the reactions was 30 min at 25 °C and the reactions were stopped by the addition of 5 μL of Streptavidin-XL665 and 5 μL Tk Antibody Cryptate working solution to all of wells. The plate was read using Envision (Perkin Elmer, Waltham, MA, USA) at 320 nm and 615 nm. IC50 values were calculated from the inhibition curves.

[4] = tested on: HepG2 (human hepatocellular carcinoma); experiment: MTT cytotoxicity / anti-proliferative assay in HepG2; conditions: read-out: IC50 HepG2 cytotoxicity, 72 h, average of three determinations

| SMILES | IC50 [2] [nM] | IC50 [4] [nM] | other results |
| --- | --- | --- | --- |
| COc1ncc(-c2ccc3nc(N)n(-c4ccccc4C(F)(F)F)c(=O)c3c2)cc1S(=O)(=O)Nc1ccc(F)cc1F (single isomer, unassigned) [Compound 6] |  |  | fold higher PI4K IIIα potency than compound 7 ([1]; enantiomer comparison 6 vs 7): 25 ×; pIC50 PI4K IIIα [1]: 8.3 |
| COc1ncc(-c2ccc3nc(N)n(-c4ccccc4C(F)(F)F)c(=O)c3c2)cc1S(=O)(=O)Nc1ccc(F)cc1F (single isomer, unassigned) [Compound 7] |  |  | pIC50 PI4K IIIα [1]: 6.9 |
| O=S(=O)(Nc1ccc(F)cc1F)c1cncc(-c2ccc3nccc(-c4ccncc4)c3c2)c1 [Compound 1] | 1 |  |  |
| Nc1ncc(-c2ccc3nccc(-c4ccncc4)c3c2)cc1S(N)(=O)=O [Compound 2] | 10 |  |  |
| NC(=O)Cn1cc(-c2ccnc3ccc(-c4cncc(S(=O)(=O)Nc5ccc(F)cc5F)c4)cc23)cn1 [Compound 3] | 7.9 |  |  |
| CCNc1cnc2ccc(-c3cnc(N)c(S(=O)(=O)N(C)C)c3)cc2n1 [Compound 4] | 8 |  |  |
| C[C@@H](NS(=O)(=O)c1cc(Br)cnc1Cl)c1ccccc1 [Compound 10a, (R)-5-Bromo-2-chloro-N-(1-phenylethyl)pyridine-3-sulfonamide] |  | 9260 ± 890 | IC50 [3]: 1080 nM; melting point: 173.4 to 174.9 °C |
| C[C@H](NS(=O)(=O)c1cc(Br)cnc1Cl)c1ccccc1 [Compound 10b, (S)-5-Bromo-2-chloro-N-(1-phenylethyl)pyridine-3-sulfonamide] |  | 24200 ± 2340 | IC50 [3]: 2690 nM; melting point: 174.5 to 175.5 °C |
| CS(=O)(=O)N1CCN(Cc2cc3nc(-c4cccc5[nH]ncc45)nc(N4CCOCC4)c3s2)CC1 [GDC-0941] |  | 1230 ± 170 |  |
